The whole screen tested about 310,000 compounds, of which about 2,200 (0.71%) showed an effect of 50% or more. Effects have a minus sign here. Some of the results follow.
Biological target: human ether-à-go-go-related gene (hERG) potassium channel (human, UniProt Q12809)
Test: primary screen, population patch clamp on CHO cells stably expressing hERG

Sequence of human ether-à-go-go-related gene (hERG) potassium channel (Q12809 whole entry, looked up): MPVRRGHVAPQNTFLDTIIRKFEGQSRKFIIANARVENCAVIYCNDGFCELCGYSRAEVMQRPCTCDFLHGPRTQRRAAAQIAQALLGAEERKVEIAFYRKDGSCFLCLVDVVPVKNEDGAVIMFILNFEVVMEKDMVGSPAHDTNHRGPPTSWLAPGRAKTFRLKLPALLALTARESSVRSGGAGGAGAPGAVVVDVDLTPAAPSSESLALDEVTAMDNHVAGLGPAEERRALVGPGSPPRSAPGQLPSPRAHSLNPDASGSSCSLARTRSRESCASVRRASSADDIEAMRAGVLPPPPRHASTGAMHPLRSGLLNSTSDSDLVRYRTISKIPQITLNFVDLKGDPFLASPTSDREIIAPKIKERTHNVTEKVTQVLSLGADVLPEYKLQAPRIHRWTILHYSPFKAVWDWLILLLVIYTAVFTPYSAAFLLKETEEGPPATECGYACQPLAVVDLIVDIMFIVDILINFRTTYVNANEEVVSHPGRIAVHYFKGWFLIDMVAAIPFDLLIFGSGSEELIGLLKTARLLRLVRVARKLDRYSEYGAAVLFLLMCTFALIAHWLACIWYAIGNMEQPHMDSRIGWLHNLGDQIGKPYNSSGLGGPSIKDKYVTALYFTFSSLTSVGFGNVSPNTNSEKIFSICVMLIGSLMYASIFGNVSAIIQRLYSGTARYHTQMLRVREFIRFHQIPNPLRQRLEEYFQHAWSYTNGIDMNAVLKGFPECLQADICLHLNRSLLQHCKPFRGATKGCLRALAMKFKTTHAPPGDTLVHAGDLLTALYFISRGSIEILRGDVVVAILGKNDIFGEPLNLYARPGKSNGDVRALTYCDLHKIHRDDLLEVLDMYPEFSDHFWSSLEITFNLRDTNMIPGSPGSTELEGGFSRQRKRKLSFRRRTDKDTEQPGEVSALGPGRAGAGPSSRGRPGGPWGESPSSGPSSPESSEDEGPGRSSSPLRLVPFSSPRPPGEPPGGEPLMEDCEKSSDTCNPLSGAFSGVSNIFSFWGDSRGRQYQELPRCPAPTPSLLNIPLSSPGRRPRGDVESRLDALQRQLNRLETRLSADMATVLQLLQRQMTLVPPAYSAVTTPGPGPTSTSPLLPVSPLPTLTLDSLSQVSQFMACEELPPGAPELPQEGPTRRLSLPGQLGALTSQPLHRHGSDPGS

| Compound | hERG current change (%, negative = inhibition) at 1uM [%] |
| --- | --- |
| COc1cc(CCCN2C(=O)C(=O)NC[C@H]2Cc2cccc3ccccc23)cc(OC)c1OC | 2.52 |
| Cc1ccc(S(=O)(=O)N(c2nc(N(C)C)nc(N(C)C)n2)n2cnnc2)cc1 | 19.8 |
| Cc1ccccc1-c1nc(CN2CCC(C(=O)NC3CC3)CC2)c(C)o1 | 2.7 |
| O=C(Nc1ccccc1Cl)NC1(C(=O)NCC2CCCO2)CCCCC1 (stereo not drawn) | 15.9 |
| CCOc1ccc(S(=O)(=O)n2ccc(C)n2)cc1 | 6.03 |
| O=C1/C(=C\c2ccc(-c3ccccc3[N+](=O)[O-])o2)C(c2ccccc2)=NN1c1ccccc1 | 12.3 |
| COC(=O)C(Sc1nc(C)cc(C)c1C#N)c1ccccc1 (stereo not drawn) | 9.2 |
| CCCCN1CNC(=S)N(c2ccccc2OCC)C1 | 11.3 |
| Cc1oc2c(c(=O)c1C)C(=O)CC(c1ccccc1)C2 (stereo not drawn) | 4.78 |
| CC(C)CC1NC(=O)N(CCCCN2C(=O)c3ccccc3C2=O)C1=O (stereo not drawn) | 6.97 |
| COc1ccccc1-n1cnnc1SCc1csc(-c2ccccc2)n1 | 8.32 |
| Cc1cccc(C)c1OCC(=O)Nn1c(C)nc2ccccc2c1=O | -7.76 |
| COc1cc(/C=N/NC(=O)C(NC(=O)c2ccccc2)c2n[nH]c(=O)c3ccccc23)ccc1OCC(N)=O (stereo not drawn) | 4.47 |
| CCN1CCN(C(=O)CS(=O)(=O)Cc2nc(-c3ccccc3C)oc2C)CC1 | 12.3 |
| Cc1cccc2sc(NC(=O)CN(C)S(=O)(=O)c3ccc(Br)s3)nc12 | 9.84 |
| O=C(Nc1ccc(NC(=O)c2ccccc2Cl)nc1)c1ccncc1 | 1.95 |
| COCCCN1CN(S(=O)(=O)c2cccs2)c2nc3ccccc3nc21 | 3.93 |
| O=C(/C=C/c1ccccc1)NC(=S)Nc1ccc(CN2CCOCC2)cc1 | -9.68 |
| COc1cc(CO)cc(Br)c1OCC(=O)O | 20.3 |
| FC(F)(F)C(Oc1nc(Nc2ccc(Cl)cc2)nc(N2CCOCC2)n1)C(F)(F)F | 11.9 |
| O=C(NC(=S)NC1CCCC1)c1ccccc1 | 8.04 |
| O=C(c1cccc(F)c1)N1CCN(c2cccc(C(F)(F)F)c2)CC1 | 3 |
| Cc1ccc(C(NC(=O)NCCCN2CCOCC2)=C(Cl)Cl)cc1F | 5.09 |

| Compound | hERG current change (%, negative = inhibition) at 1uM [%] |
| --- | --- |
| Cc1oc2c(C)c(O)ccc2c(=O)c1-c1nncn1-c1ccccc1 | 13.8 |
| COc1ccccc1CNC(=O)COc1ccccc1OC | 7.74 |
| Cc1nc2c(c(C)nn2-c2ccccc2)c(C)c1Cl | 7.19 |
| COc1ccc(/C=N/Nc2nccnc2Cl)cc1 | 0.804 |
| CS(=O)(=O)Nc1cccc(C2=NN(C(=O)c3ccco3)C(c3ccco3)C2)c1 (stereo not drawn) | 0.506 |
| CCOCc1nnc(NC(=O)c2cc(Cl)ccc2OC)s1 | 2.17 |
| O=C(NCCc1cccc(Cl)c1)c1cccnc1 | 3.74 |
| CC(C)(CO)Nc1nc(Cl)nc(NC2CCCCC2)n1 | 9.48 |
| Cc1c(C(=O)C(=O)N2CCN(Cc3ccc4c(c3)OCO4)CC2)c2ccccc2n1C | 12.5 |
| Cc1cccc(-n2ncc3c2CCCC3NC(=O)CC(F)(F)F)c1C (stereo not drawn) | 7.67 |
| O=C1Nc2ccccc2C12OCC1(CO2)COC2(OC1)C(=O)Nc1ccccc12 (stereo not drawn) | 9.99 |
| O=C(CSc1nnc2c(n1)[nH]c1ccccc12)NCc1ccco1 | 5.94 |
| C=CCN1C(=O)CSc2ccc(C(=O)NCc3ccco3)cc21 | -3.06 |
| O=C(COc1ccc(Nc2ccccc2)cc1)Nc1ccncc1 | 1.07 |
| CCc1nnc2c(N(C)C)nc3ccccc3n12 | -1.42 |
| CC(=O)Nc1ccc2c(c1)nc1n2CCOC1 | -0.134 |
| S=C(NCCc1ccncc1)Nc1ccccc1 | 17.2 |
| CCC(Oc1cccc(Cl)c1)C(=O)N1CCCN(C)CC1 (stereo not drawn) | 15.7 |
| CN1CCN(/C=N/c2c(C#N)cnn2C)CC1 | 5.43 |
| O=[N+]([O-])c1ccc(N2CCCCCC2)c([N+](=O)[O-])c1 | 4.86 |
| O=C(Nc1ccc(Cl)c(Cl)c1)C1C2C=CC3(O2)C1C(=O)N(CCN1CCCCC1)C3C(=O)NC1CCCCC1 (stereo not drawn) | -16 |
| COc1cc(C2SCC(=O)Nc3c2c(C)nn3-c2ccccc2)cc(OC)c1OC (stereo not drawn) | 2.47 |
| COc1ccc(S(=O)(=O)Nc2ccc3c(c2)n(C)c(=O)n3C)cc1OC | 12.8 |

| Compound | hERG current change (%, negative = inhibition) at 1uM [%] |
| --- | --- |
| CC(C(=O)Nc1ccc(F)c(F)c1F)N(C)CC(=O)Nc1ccccc1Br (stereo not drawn) | 9.69 |
| Cc1ccc(CNC(=O)CS(=O)(=O)c2cn(CC(=O)N3CCOCC3)c3ccccc23)cc1 | 2.47 |
| COc1cccc(-c2cc(C(=O)NCCCn3ccnc3)c3ccccc3n2)c1 | -43 |
| Cc1ccc(N(C(=O)Cn2nnc(-c3cccs3)n2)C(C(=O)NC2CCCC2)c2ccncc2)cc1 (stereo not drawn) | 4.01 |
| COc1ccc(OCC(=O)N/N=C(\C)c2cc3ccccc3o2)cc1 | -17 |
| Cn1c(CNC(=O)c2ccccc2F)nnc1SCC(=O)N1CCN(c2ccccc2)CC1 | 13.6 |
| Cc1cc(NS(=O)(=O)c2ccc(OCCNS(C)(=O)=O)cc2)no1 | 10.7 |
| CC1(C)CC(=O)c2cc(C(=O)N3CCN(CCO)CC3)c(=O)n(-c3ccc(Cl)cc3)c2C1 | 9.89 |
| Cc1c(C(=O)O)sc2nc(/C=C/c3cccc(F)c3)[nH]c(=O)c12 | 12.3 |
| O=C(N/N=C/c1cccnc1)C1CCCN(S(=O)(=O)c2ccccc2)C1 (stereo not drawn) | 5.81 |
| Cc1ccc(C)c(N(C(=O)CS(=O)CC(=O)Nc2ccc3c(c2)OCO3)C(C)C(=O)NC2CCCC2)c1 (stereo not drawn) | -12.2 |
| O=C(Oc1ccc2c3c(c(=O)oc2c1)CCCC3)c1ccco1 | 11 |
| CC1CCCC(NS(=O)(=O)c2cc3c(cc2Cl)NC(=O)CO3)C1C (stereo not drawn) | 2.9 |
| Cc1sc2ncn(CC(=O)NCC(=O)N3CCC4(CC3)OCCO4)c(=O)c2c1C | 7.59 |
| COc1ccc(S(=O)(=O)N2CCOC2CNC(=O)C(=O)NCc2ccc(F)cc2)cc1 (stereo not drawn) | -4.78 |
| Cn1cccc1/C=C1\SC(=S)N(NC(=O)c2ccccc2)C1=O | 11.8 |
| COc1cc(/C=C2/CCc3ccccc3C2=O)cc(OC)c1OC | 5.04 |
| Cc1ccnc(NS(=O)(=O)c2ccc(NC(=O)c3cc(=O)c4ccccc4o3)cc2)n1 | 17 |
| C/C(=N\NC(=O)C1CC1)c1ccc(C(C)(C)C)cc1 | 9.99 |
| Cc1cc(C)cc(-n2ncc3c2CCCC3NC(=O)C2CCC2)c1 (stereo not drawn) | -42.9 |
| CC1CCN(S(=O)(=O)c2ccc(S(=O)(=O)NCc3cccnc3)cc2)CC1 | 15.1 |
| CC(C)Oc1ccc(C(CC(=O)N2CCOCC2)C(C)C)cc1 (stereo not drawn) | 6.27 |
| C[C@H](NC(=O)c1nc[nH]c1C(=O)N1CC[NH2+]CC1)C(=O)OC(C)(C)C.[Cl-] | 10.2 |

| Compound | hERG current change (%, negative = inhibition) at 1uM [%] |
| --- | --- |
| Cc1ccc(NC(=O)CN2CCC(C(=O)c3ccc(F)cc3)CC2)cc1 | -50.1 |
| O=C(NCc1cccnc1)C(=O)NCC(c1ccco1)N1CCN(c2ccc(F)cc2)CC1 (stereo not drawn) | 10.5 |
| Cc1ccc2oc(=O)cc(CN3CCC(C)CC3)c2c1 | 16 |
| CCN(CC)C(=O)CCCc1c[nH]c2ccccc12 | 15.7 |
| COC(=O)CSc1nc(N)nc(C)c1Cl | -3.41 |
| Cc1nnc(NC(=O)c2ccco2)s1 | 6.67 |
| O=C(CCCN1C(=O)/C(=C/c2cccs2)SC1=S)Nc1cccc(O)c1 | 14.3 |
| O=C(NCc1ccco1)c1cnn2c(C(F)(F)F)cc(-c3cccs3)nc12 | 9.4 |
| C/C(=N\NC(=O)c1ccccc1)c1c(C)[nH]n(-c2ccccc2)c1=O | 19.3 |
| Nc1nc(-c2ccc(Cl)cc2Cl)cn1N | 0.323 |
| CCc1ccc(NC(=O)c2ccnc(C(C)(C)C)c2)cc1 | -0.23 |
| Fc1ccc(Br)cc1/C=N/N1CCN(c2ccccc2)CC1 | 17.1 |
| Cc1ccc(CC(=O)Nc2cc(C)ccn2)cc1 | 12.9 |
| CO[C@@H]1O[C@@H]2COC(c3ccccc3)O[C@@H]2[C@@H](OC)[C@@H]1O (stereo partly drawn) | 19.4 |
| O=C1C=CN(Cc2ccccc2)CC1 | 4.85 |
| O=C(O)C1=NOC(CNC(=O)c2ccccc2Cl)C1 (stereo not drawn) | 21.3 |
| O=C(Cn1cnc2c(oc3ccccc32)c1=O)N1CCCc2ccccc21 | 4.77 |
| Cc1cc(=O)oc2cc(OCC(=O)N/N=C/c3ccccc3[N+](=O)[O-])ccc12 | -8.29 |
| Cc1noc(/C=C/c2ccco2)c1S(=O)(=O)N1CCC(C(=O)N2c3ccccc3CC2C)CC1 (stereo not drawn) | -0.434 |
| CCOc1ccccc1NC1=NC2CS(=O)(=O)CC2S1 (stereo not drawn) | 18.9 |
| COc1ccc2nc(Nc3nc(CSc4nc5ccccc5s4)cc(=O)[nH]3)nc(C)c2c1 | 5.49 |
